According to a compilation of properties of binary mixtures (doi:10.1021/acs.jced.0c00298):
The densities may have been worked out from excess volumes.

Assay: xn = mol fraction of the nth substance listed
Settings: 100 kPa

CO + CC[n+]1ccn(CCOC)c1.O=S(=O)([N-]S(=O)(=O)C(F)(F)F)C(F)(F)F
x2 = 0
Settings	mass density [kg/m3]
288.15 K	795.9
293.15 K	791.2
298.15 K	786.5
303.15 K	781.8
308.15 K	777
318.15 K	767.4

CC[n+]1ccn(CCOC)c1.O=S(=O)([N-]S(=O)(=O)C(F)(F)F)C(F)(F)F + CO
mass density [kg/m3]
Settings	x1 = 0.1	x1 = 0.1997	x1 = 0.2999	x1 = 0.3966	x1 = 0.5	x1 = 0.5984	x1 = 0.6953	x1 = 0.7934	x1 = 0.9016	x1 = 1
288.15 K	1106.5	1240.7	–	1361.5	–	–	1436.7	–	1463.6	1471.8
293.15 K	1101.4	1235.5	1310	1356.3	1389.9	1413.9	1431.6	1446.1	1458.5	–
298.15 K	–	1230.4	–	1351.1	1384.7	1408.7	1426.5	1441	1453.4	1461.7
303.15 K	1091.3	1225.2	–	1346	–	1403.6	1421.4	1435.9	1448.4	–
308.15 K	1086.2	–	–	–	1374.5	–	1416.3	–	1443.4	1451.6
313.15 K	1081	1214.9	1289.4	1335.7	1369.4	–	–	–	1438.4	1446.6
318.15 K	1075.9	1209.7	–	1330.6	1364.3	1388.4	1406.2	1420.8	1433.4	1441.6
